Data on 79 sequences can be found in the supplement of paper PMC10126150.

Values marked as one replicate rest on one cluster of the flow cell; about a third of the high ones do not repeat.

The test system of this data set is ATP. Nature of the data set: switch fluorescence ratio, 500 uM ATP over buffer (Cy3 cluster intensity, sum of 5 cycles each) (fold (ratio)); higher = stronger signal-on switching upon ATP binding; sequences stand for … in TCGTCGGCAGCGTCAGATGTGTATAAGAGACAGTTTTTTTTTTTTTTTTTTTTTTTTT…TC. The following applies: aptamer strand: ATP DNA aptamer (quencher-CACCTGGGGGAGTATTGCGGAGGAAGG + anchor), 100 nM annealed; ATP concentration: 500 uM; one replicate. In outline: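 The quencher-labelled ATP aptamer, at 100 nM, was annealed to Cy3-labelled switching-strand clusters on a modified Illumina MiSeq flow-cell. The clusters were imaged in selection buffer, then after 15 min with 500 uM ATP at 22 °C, and this buffer/ATP cycle ran five times with NaOH stripping and re-annealing between runs. Per-cluster fluorescence ratios, summed target-cycle over summed buffer-cycle Cy3 intensity, were averaged per switch-domain sequence. Clusters outside 100-1000 RFU were excluded.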
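Further: ATP exposure 15 min at 22 °C before imaging.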

GAGGGATCTG: the switch fluorescence ratio was 0.943. Turning to ACGTCCGTTG, the switch fluorescence ratio was 0.993. On to CGTATAGTTC, for which the switch fluorescence ratio stood at 0.943. The result for CCACGCACGT reads 1.87; that for TATTCGTGCG, 0.969. GACGCTATCA: the switch fluorescence ratio worked out at 1.28. In the case of GCGGCAGCAT, the switch fluorescence ratio is 0.994.

With TGCGACACCC, the switch fluorescence ratio was 1.15.

AGGGTGCTTG: the switch fluorescence ratio came to 1. Regarding ATTTGATGTC, the switch fluorescence ratio was found to be 1.04.

In the case of GATCTGACTT, the switch fluorescence ratio amounted to 1.03. Turning to CGGCTTGCTC, the switch fluorescence ratio came to 1.05.

In the case of GGATTGCTGC, the switch fluorescence ratio worked out at 0.909. For the sequence TAAGCCGGGA, the switch fluorescence ratio is 1.03. As for GTGACCTCAG, the switch fluorescence ratio stood at 1.

Consider GCGTTACGAT, for which the switch fluorescence ratio stood at 1.09. For TGGCATTACT, the switch fluorescence ratio turned out to be 1.72. The result for CATTTCGCCA reads 1.14.

TAAGGGGAA: the switch fluorescence ratio worked out at 0.999. Turning to AGGCGGTCGG, the switch fluorescence ratio turned out to be 0.998.

Consider TTTTTGAACC, for which the switch fluorescence ratio is 1.

Take CGGCACAGCA: the switch fluorescence ratio worked out at 0.983. As to CGGAGGTGT, the switch fluorescence ratio was 1. In the case of GGGTCTCCGG, the switch fluorescence ratio worked out at 1.03. In the case of TTATTCGTTA, the switch fluorescence ratio is 1.03. Next, GCAGTGTACA: 1.05; TCGACTCGTG: 0.994.

For the sequence CGTTGGGGCC, the switch fluorescence ratio was 1.03. Turning to TGACATTATC, the switch fluorescence ratio was 1.07. With GTTCCGGTGG, the switch fluorescence ratio came out at 0.982. The result for TTGTGGACAG reads 0.988; that for GGGCCGCGC, 0.976; that for CGTTAAAGCG, 0.933.

Turning to CCTCCGTTCG, the switch fluorescence ratio is 3.35.

For the sequence TAAGAGCGC, the switch fluorescence ratio worked out at 0.992. With TCGCCTCTTT, the switch fluorescence ratio came out at 1.01. For the sequence CTCGGGGCGA, the switch fluorescence ratio came to 1.06. ATCGGCCGT: the switch fluorescence ratio is 1.04. On to TTTTATCGA, for which the switch fluorescence ratio was found to be 0.998. Next, GATAAATTAA: 0.999; TATTACTTG: 0.991. Turning to TTTCGAGACA, the switch fluorescence ratio is 0.981. As for AACATTCTAG, the switch fluorescence ratio was determined as 0.97. Next, TACTAATCG: 1.01; TACCTGTCT: 0.98; TAATTGATTG: 1.02.

With CAGTGGGCGA, the switch fluorescence ratio was 1.04. Regarding GAAAGAACTC, the switch fluorescence ratio stood at 1.03. As for CGCGGCAGCC, the switch fluorescence ratio was found to be 0.989. With CACTAGACTA, the switch fluorescence ratio stood at 1.02. AATGCCGAGG: the switch fluorescence ratio came to 0.991. The result for GTTTGAACAG reads 1.02; that for TTCGACCACG, 0.984. For GAGTATTACT, the switch fluorescence ratio stood at 1.05. With GATATGAACT, the switch fluorescence ratio was found to be 1.01.

For CTGGCCGGTT, the switch fluorescence ratio is 1.06. Turning to CAAGCAAATG, the switch fluorescence ratio came to 1.14.

On to CCCCATGTTA, for which the switch fluorescence ratio stood at 1.05. For AGTATGGGAA, the switch fluorescence ratio is 1.05. Next, GCACTAGCAT: 1.03; TTTCCCCGGT: 1.1. On to AATAAGGTCG, for which the switch fluorescence ratio came to 0.932.

In the case of AGGTTTTCCA, the switch fluorescence ratio is 1.01.

As to AGACATTTTA, the switch fluorescence ratio is 0.984.

For TTGTAAA, the switch fluorescence ratio worked out at 1.01.

Regarding AGACCTCCT, the switch fluorescence ratio was 1.22. As to GGTTGATCAC, the switch fluorescence ratio worked out at 0.996. Regarding TTTTCACATA, the switch fluorescence ratio was 1.04. For TTGTAACAGC, the switch fluorescence ratio worked out at 1.07.

Regarding TAGAGCAGGA, the switch fluorescence ratio was determined as 0.999. The result for AAGGTCATCC reads 0.988. Turning to CGAGCCCGGG, the switch fluorescence ratio worked out at 1.71.

As to TGGCCGGGC, the switch fluorescence ratio stood at 1.05. Next, AAGCTTTTCG: 1; TCGGAGGATG: 0.986.

With CACAAAGTTC, the switch fluorescence ratio was determined as 1.08. With AACCCCTGGG, the switch fluorescence ratio worked out at 1.04. Next, ACTTAATCA: 0.963; GCGGAGCCCA: 0.985.
